Source: paper PMC10039067, “Temporal and spatial assembly of inner ear hair cell ankle link condensate through phase separation” (Nature Communications, 2023)
Positions count from the first letter of the chain named. Names may count otherwise. Results are given in words; binding and its absence hold for the method and conditions named. Some binding calls cover weakened binding; strength is not graded here. For some assays here: Where a sequence is shown, tags or fusion partners need not be part of it. Blank lines part the entries; values can stand above or below the binder they belong to.

Legend:
GST-PDZD7 PDZ12 = target: T1, GST-PDZD7 PDZ12 (UniProt E9Q9W7); experiment: pull-down; GST-tagged bait (10 μM) with purified partners, room temperature 0.5 h or 4 °C 1 h; washed with purification buffer; SDS-PAGE and Coomassie blue staining; both purified
T1 sequence: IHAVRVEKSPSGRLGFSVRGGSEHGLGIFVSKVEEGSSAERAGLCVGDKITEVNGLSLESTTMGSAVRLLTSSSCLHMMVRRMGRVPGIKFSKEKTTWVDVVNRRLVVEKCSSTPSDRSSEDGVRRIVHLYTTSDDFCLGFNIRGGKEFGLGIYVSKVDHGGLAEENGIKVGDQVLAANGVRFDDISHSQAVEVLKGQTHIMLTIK

GST-WHRN NPDZ12 = target: T2, GST-WHRN NPDZ12 (UniProt Q9P202); experiment: as above
T2 sequence: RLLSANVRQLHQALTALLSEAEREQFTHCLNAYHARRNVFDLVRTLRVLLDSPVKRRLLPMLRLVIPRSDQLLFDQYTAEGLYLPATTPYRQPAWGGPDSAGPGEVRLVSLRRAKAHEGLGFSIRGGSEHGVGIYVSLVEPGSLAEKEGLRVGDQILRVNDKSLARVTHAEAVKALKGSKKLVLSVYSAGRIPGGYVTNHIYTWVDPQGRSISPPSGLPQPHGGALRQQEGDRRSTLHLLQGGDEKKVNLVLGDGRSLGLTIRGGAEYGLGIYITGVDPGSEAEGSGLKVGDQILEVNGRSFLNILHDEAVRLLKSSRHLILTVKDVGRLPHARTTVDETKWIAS

WHRN NPDZ12 [1] = target: T3, WHRN NPDZ12 (UniProt Q9P202 33-377); experiment: co-sedimentation; 20 μM of each protein, room temperature 5 min, 30 °C 10 min, centrifuged at 16,873 g 10 min; supernatant and pellet on SDS-PAGE, Coomassie blue (condensed phase); both purified
T3 construct: WHRN, residues 33-377 (NTD, PDZ1 and PDZ2) of UniProtKB Q9P202; Cloned into pET.32M.3C; Named Trx-WHRN NPDZ12 in SEC-MALS; also called Trx-WHRN NPDZ12; Whirlin; source: E. coli BL21 (DE3), purified (Ni2+-NTA, size-exclusion chromatography); not shown: Trx, N-terminal, kept
T3 sequence (looked up): T2 sequence

PDZD7 PDZ3 = target: T4, PDZD7 PDZ3 (UniProt E9Q9W7); experiment: ITC; MicroCal iTC200, 25 °C; 50 mM tris pH 7.5-8.0, 300 mM NaCl, 1 mM DTT, 1 mM EDTA; cell 20–50 µM, syringe 400–800 µM; one-site binding model; both purified
T4 sequence: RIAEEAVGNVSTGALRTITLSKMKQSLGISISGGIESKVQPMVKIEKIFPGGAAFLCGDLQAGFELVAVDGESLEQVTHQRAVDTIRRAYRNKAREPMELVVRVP

WHRN NPDZ1 = target: T5, WHRN NPDZ1 (UniProt Q9P202 33-239); experiment: as above
T5 chain: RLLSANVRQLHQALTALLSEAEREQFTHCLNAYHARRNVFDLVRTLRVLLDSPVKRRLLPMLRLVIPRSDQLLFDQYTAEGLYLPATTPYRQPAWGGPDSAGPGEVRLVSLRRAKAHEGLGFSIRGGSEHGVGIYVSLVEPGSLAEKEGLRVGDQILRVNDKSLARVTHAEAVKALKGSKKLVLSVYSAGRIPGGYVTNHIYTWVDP

PDZD7 PDZ12 = target: T6, PDZD7 PDZ12 (UniProt E9Q9W7); experiment: as above
T6 sequence: T1 sequence

WHRN NPDZ12 [2] = target: T3, WHRN NPDZ12; experiment: SEC; FPLC on Superose 12 10/300 GL with fractionation; WHRN NPDZ12, USH2A-CT(S) and ADGRV1-CT mixed at 1:1:1; fractions on SDS-PAGE, Coomassie blue; both purified

binding (GST-PDZD7 PDZ12): no binding
binding (GST-WHRN NPDZ12): binds
binding (WHRN NPDZ12 [1]): binds
binding (WHRN NPDZ1): binds
binding (WHRN NPDZ12 [2]): binds
B1: ADGRV1-CT (domain or fragment, UniProt Q8VHN7 6239-6298, looked up)
chain: GSLIADEESQEFDDLIFALKTGAGLSVSDNESGQGSQEGGTLTDSQIVELRRIPIADTHL
notes: ADGRV1 cytoplasmic region, residues 6239-6298 of UniProtKB Q8VHN7; Named Trx-ADGRV1-CT in SEC-MALS; also called Trx-ADGRV1-CT; VLGR1-CT; source: E. coli BL21 (DE3), purified (Ni2+-NTA, size-exclusion chromatography); not shown: Trx, N-terminal, kept
binding (PDZD7 PDZ3): no binding (tested: cell 20–50 µM, syringe 400–800 µM)
binding (PDZD7 PDZ12): no binding (tested: cell 20–50 µM, syringe 400–800 µM)

binding (GST-WHRN NPDZ12): no binding
B2: PDZD7 PDZ12 G103R (domain or fragment, UniProt E9Q9W7 84-289)
chain: T1 sequence with G20R
